# Measured values from the supplement of paper PMC3334620.
# Whole data set: some 33,000 sequences, median “E-score (-0.5 to 0.5)” near -0.011, cut for the highest 2% near 0.28. The list shows a part of the results.
# Target: T1, Gcr1 (UniProt P07261)
# T1 sequence: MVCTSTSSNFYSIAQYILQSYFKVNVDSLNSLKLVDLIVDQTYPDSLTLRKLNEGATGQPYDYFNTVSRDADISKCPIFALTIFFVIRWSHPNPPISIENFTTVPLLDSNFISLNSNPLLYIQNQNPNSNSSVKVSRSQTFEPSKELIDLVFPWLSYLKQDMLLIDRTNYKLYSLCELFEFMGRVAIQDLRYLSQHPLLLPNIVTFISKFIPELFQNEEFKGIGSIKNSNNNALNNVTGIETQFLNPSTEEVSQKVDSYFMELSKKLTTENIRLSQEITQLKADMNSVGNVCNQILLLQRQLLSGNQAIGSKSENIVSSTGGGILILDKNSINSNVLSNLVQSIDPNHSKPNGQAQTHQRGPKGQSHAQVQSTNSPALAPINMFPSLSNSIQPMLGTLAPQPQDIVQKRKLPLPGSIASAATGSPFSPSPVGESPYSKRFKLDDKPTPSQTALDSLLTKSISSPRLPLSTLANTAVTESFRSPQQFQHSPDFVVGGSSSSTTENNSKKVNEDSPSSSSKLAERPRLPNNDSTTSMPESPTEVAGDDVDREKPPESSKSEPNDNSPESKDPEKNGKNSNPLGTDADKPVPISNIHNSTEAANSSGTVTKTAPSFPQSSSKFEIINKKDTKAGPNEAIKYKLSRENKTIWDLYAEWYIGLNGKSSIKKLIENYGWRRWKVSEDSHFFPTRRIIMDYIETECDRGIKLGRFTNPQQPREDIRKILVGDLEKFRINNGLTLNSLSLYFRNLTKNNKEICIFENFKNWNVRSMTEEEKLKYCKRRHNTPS
# Assay: PBM E-score (8-mer binding enrichment) (E-score (-0.5 to 0.5)); higher = stronger / more preferred TF binding; most listed sequences are background and not binding sites
# Details: protein concentration: 100 nM; construct: GST-full length
# Outline: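 Each ungapped eight-base word and its reverse complement, pooled, received an E-score from the Universal PBM Analysis Suite. Underlying scans, normalised with masliner, recorded fluorescent anti-GST bound to GST-tagged yeast transcription factors. These were applied at about 100-200 nM to universal all-10-mer Agilent arrays double-stranded by primer extension.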
row,Sequence,PBM E-score
1,CTCGTCTC,-0.00497
2,ACAAGGAC,-0.0635
3,CGTTATTA,0.044
4,CAAGCATC,0.112
5,GTAAGTTA,-0.0605
6,ATCTGGTA,0.258
7,ACGTACGC,-0.0608
8,AGACCTCC,-0.282
9,ATGTTCAC,0.0132
10,AGGCGCTG,0.213
11,CCGACATC,0.243
12,GAAGTGGC,0.115
13,CCTACGGA,-0.115
14,GCCGTTTA,-0.0504
15,CGTTTGTA,0.0365
16,CTCTTCAG,-0.0373
17,AGTACTAG,0.121
18,TGGAAAAA,-0.0241
19,CGACCAAG,-0.197
20,AGAACAGA,-0.263
21,CTTTTGAC,-0.0271
22,CATGCTCC,-0.144
23,AGTGCGGG,-0.117
24,GATGTCAA,-0.0463
25,ATTCCAGA,0.286

row,Sequence,PBM E-score
1,CATGGGGA,0.198
2,GAGAATCA,-0.267
3,TATCCGCA,0.0884
4,CCGGATTA,-0.0163
5,AGCGGACC,-0.0147
6,GGTGCTAC,0.263
7,GCACATGC,-0.0474
8,GATTAGAC,-0.00665
9,ATTTGCAC,0.0134
10,CAGCTTAG,-0.144
11,GGCGTCAA,-0.0289
12,ACCCGCAT,0.163
13,ATTTTGTG,0.199
14,GCCCGCCA,-0.162
15,CCACAGCG,-0.0915
16,ACACATCG,-0.0614
17,CATAAACG,0.109
18,ATAACGGC,0.101
19,CTGTCGCA,-0.258
20,ATTGCTTA,-0.105
21,ACCAGAAT,0.279
22,GAGTAAGC,-0.235
23,ATACTCAC,-0.197
24,CGTACATC,-0.0193
25,ATGAGGGG,-0.0333

row,Sequence,PBM E-score
1,GAGCATGC,-0.134
2,AGCATATA,-0.0111
3,AGCGGCGG,0.143
4,TTATATAA,0.0687
5,CATCATTA,0.195
6,CACAATGG,0.0423
7,ACATGAAG,0.142
8,CCTTGATC,-0.14
9,CGCCCCAG,-0.00627
10,AACCGCAC,-0.0767
11,CACCGAGA,-0.00934
12,CCAACTGC,0.094
13,AAGCGGGA,0.216
14,ACAGCGGA,0.0225
15,AGATACAA,0.183
16,CTCTACAA,0.194
17,GGGTCAGA,-0.193
18,CTAATCAG,0.162
19,ACGGGGCT,-0.0934
20,CAGCACAA,-0.102
21,GTTGATTA,-0.0945
22,ACAAGAAC,0.0846
23,GAGGTAAC,-0.00063
24,TATCTACA,-0.167
25,CCGCCATC,-0.0909

row,Sequence,PBM E-score
1,AGAACTTG,0.111
2,AATGGCTG,-0.0534
3,GTAGCTTA,0.0347
4,CATCCTCC,-0.00978
5,CGCGGCCA,-0.1
6,CCGGCCTA,-0.115
7,CTTCTATC,0.133
8,AAGCCAGC,0.0871
9,ACCACTCA,-0.067
10,CCGCATTC,0.233
11,CCTCGCCC,-0.167
12,ATACTGTG,-0.0587
13,ATTACTCG,0.0746
14,ATCATTAC,-0.018
15,ATAGTCGC,0.0903
16,CAACCCTA,0.0211
17,CGTGGCTC,-0.256
18,ATGTGAGA,0.019
19,AAATCTCG,-0.0544
20,TCAGGGGA,0.0968
21,CGGATTTC,-0.122
22,AGAGTTTC,-0.195
23,GAACCCTA,0.126
24,CAGGAGTA,-0.0327
25,TCTGTCCA,0.12

row,Sequence,PBM E-score
1,AGTCCCAT,-0.103
2,GGTTCGAA,0.0394
3,CAGTGAGG,-0.176
4,CCTCTCAA,0.0927
5,CCCCGCAA,-0.0327
6,CCACCTTC,-0.0503
7,AGGCGTAG,-0.134
8,CCCGACCA,-0.0699
9,CGCTCGGC,-0.135
10,CAGTGGAG,0.168
11,CGGCTTCA,0.0352
12,ATGTGCGC,-0.0289
13,CACTTGCG,0.0426
14,ACAAGCAG,0.131
15,CACAAAGC,0.0724
16,AATAGAAA,0.0891
17,CAATTGCA,-0.0472
18,GATGAGCA,-0.164
19,ACGGACGT,0.00056
20,GTCCGCAC,-0.0732
21,TCTCGAAA,-0.0613
22,CGGGCTAG,0.0818
23,GGTGGAAC,0.0244
24,AACAGCGG,0.0964
25,ACGTTACA,-0.159

row,Sequence,PBM E-score
1,TGCGGAAA,-0.0134
2,AGTCGCGG,-0.123
3,CACTAGAG,0.0287
4,ACTGTTCC,-0.148
5,GAGCCTCC,0.0962
6,TAGATGCA,0.0235
7,ACATATCC,-0.186
8,AAGTTAAT,0.086
9,AGCTTTGC,-0.283
10,AAGTCCCG,-0.262
11,AAATTGTC,-0.0294
12,ACGAGAAA,-0.0307
13,AATTGTTA,0.116
14,CAATAAAC,0.0519
15,AACCCCGC,0.018
16,CAAAAACA,0.153
17,AATGCTCG,0.153
18,ACCCAACT,-0.0106
19,ACGATATC,-0.142
20,GATTGAAC,-0.0295
21,CCCTTCCA,-0.0993
22,AACGAATC,0.0837
23,TACATGCA,0.0914
24,ATTGGTAC,0.212
25,CCGTGTTC,-0.00032

row,Sequence,PBM E-score
1,TACTCAAA,0.0812
2,CCAGCCTA,-0.147
3,ACCGATCA,-0.0106
4,ACTTTGCA,-0.0113
5,TGTATCAA,0.062
6,ACCCGAGC,0.173
7,AGAACTAT,0.0119
8,AGTTATCA,0.0295
9,CGCCTCCG,-0.0156
10,GAGCTATA,-0.0836
11,ATTCTCTG,0.00581
12,ATGTTATC,-0.0771
13,CGGGAAGA,0.0397
14,AGGCGAGG,-0.159
15,ACAAACTG,-0.204
16,ATACCGGG,0.208
17,CTACTGAC,-0.12
18,GGTGTCAC,-0.0215
19,GCCAGACA,-0.00513
20,AGTGCTGG,-0.0595
21,ATTCAAAT,0.137
22,CTCGCTAA,-0.195
